One compound from patent US5270344A, “Method of treating a systemic disorder using trioxolane and diperoxide compounds” (priority 1992, dated 1993) can be followed below.

This assay concerns yeast infections of the vagina. As to conditions: suppository every 24 hours; within 7 days for Example 3.

Consider `Clc1ccccc1C(c1ccccc1)(c1ccccc1)n1ccnc1` [clotrimazole], for which the “Yeast culture / yeast assay” value is recorded as “a yeast assay is negative”.
